Several values for one entry are separate records, joined by “and”; a condition that tells them apart may be missing. Equal entries are not always repeated. Hit rate of the full screen: of about 73,000 compounds, about 1,800 (2.5%) were called active. The inconclusive results got no clear call from the source; some entries with a clear call stand among them for comparison. The call rests on the fitted dose curve; in most records, active means well fitted activation curve with a large enough effect; inconclusive means small, poorly fitted or top-dose-only effect; inactive means no such curve, though single readings can be large or run the other way. Potencies beside an inconclusive call are fits to weak or partial responses and may not hold up.
Assay: qHTS Assay for Agonists of the Thyroid Stimulating Hormone Receptor: Activators of Intracellular cAMP Concentrations in Parental HEK 293; further: nearly all actives have a fitted effect of over 55% in size; on activation: % of control where 0% means no effect
Conditions: parental HEK293 CNG cAMP sensor, membrane potential fluorescence; activation: at 57.1 µM (top of the series) unless noted
Summary of the method: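 Parental HEK 293 cells stably expressing a modified CNG channel (no TSHR) report cAMP rise as membrane depolarization. Membrane potential dye with 100 uM RO 20-1724 was loaded for 60 min at room temperature, then compound added for 30 min; fluorescence read at 590 nm.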
Potency means the concentration at half of the fitted maximal effect; tags describe the fitted curve by direction and shape.

Compound | Potency | activation
Cc1cc(C(=O)CSc2nc3ccccc3c(=O)[nH]2)c(C)n1C | inconclusive: 31.6 µM [activator, single point] | 
COC(=O)c1cccc(NC(=O)c2nn(C(C)C)c(=O)c3ccccc23)c1 | inconclusive: 31.6 µM [activator, single point] | 
COc1ccc(C2CC(=O)N3CN(c4ccc(C)c(Cl)c4)CSC3=C2C#N)cc1 (centres undefined) |  | inactive: 12.1%
N#Cc1ccc(CN2CC3(CCN(C(=O)c4ccco4)CC3)C2)cc1 |  | inactive: 8.38%
COc1ccc(NC(C)=O)cc1NC(=O)CSc1nnc(-c2ccccc2)n1N |  | inactive: -9.17%
CCOC(=O)Cn1nnnc1CN(Cc1ccc(OC)cc1)Cc1cc2cc(C)cc(C)c2[nH]c1=O | inconclusive: 25.1 µM [activator, single point] | 
O=C(CN1CCN(c2ccccc2F)CC1)Nc1ccccc1F | inconclusive: 25.1 µM [activator, partial curve] | 
CCOC(=O)c1sc(NC(=O)CSc2nnnn2-c2ccc(C)cc2C)nc1C | active: 25.1 µM | 
CCCCCCCCCCCCCCCC(=O)O[C@H](CC(=O)O)C[N+](C)(C)C | inconclusive: 3.98 µM [activator, full curve] and inconclusive: 39.8 µM [activator, single point] | 
Cc1ccccc1Cn1cc(S(=O)(=O)CC(=O)N2CCCCC2)c2ccccc21 | active: 31.6 µM | 
CCOC(=O)c1ccccc1NC(=O)c1ccccc1NS(C)(=O)=O | inconclusive: 12.6 µM [activator, single point] | 
c1cn(CCCNc2ncnc3sc4c(c23)CCC4)cn1 |  | inactive: 9.26%
CC(C)(C)NC(=O)C(c1ccc(I)cc1)N(CCN1CCOCC1)C(=O)CCCNC(=O)c1ccccc1 (centres undefined) | inconclusive: 10 µM [activator, partial curve] | 
COc1cc(OC)cc(C(=O)Nc2ccccc2N2CCOCC2)c1 | inconclusive: 31.6 µM [activator, single point] | 
COc1ccccc1CN(Cc1cc2cc(C)ccc2[nH]c1=O)Cc1nnnn1Cc1ccco1 | active: 20 µM | 
O=C(O)c1ncn(Cc2ccccc2)c1C(=O)O | inconclusive: 3.98 µM [activator, single point] | 
CO[C@H]1COC(=O)[C@@H](OCc2ccccc2)/C=C\[C@H](C)[C@@H](OC)COC(=O)[C@H](OCc2ccccc2)/C=C\[C@@H]1C |  | inactive: -2.98% [at 11.4 µM]
CCN(CC)S(=O)(=O)c1ccc(NC2CCCc3ccccc32)nc1 (centres undefined) | active: 25.1 µM | 
COc1cccc(C(=O)Nc2ncc3c(n2)CC(c2ccc(OC)cc2OC)CC3=O)c1 (centres undefined) | inconclusive: 20 µM [activator, partial curve] | 
COc1ccc(-c2cc(C(=O)N3CCOCC3)no2)cc1OC |  | inactive: 2.94%
Cn1ccc(C(=O)OCC(=O)c2ccccc2)n1 | inconclusive: 0.501 µM [activator, single point] | 
CN(C)c1ccc(NC(=O)c2ccc(COc3cccc(Cl)c3)o2)cc1 |  | inactive: -0.185%
COc1cc(NC(=O)C2CCCCC2)c(OC)cc1NC(=O)CCC(=O)NCc1ccco1 | inconclusive: 39.8 µM [activator, single point] | 

Compound | Potency | activation
C=C(CC)C(=O)c1ccc(OCC(=O)O)c(Cl)c1Cl | inconclusive: 15.8 µM [activator, single point] | 
CC(C)(C)NS(=O)(=O)c1ccc(CCC(=O)N2CCCCC2)cc1 | inconclusive: 39.8 µM [activator, single point] | 
N#Cc1c(-c2ccccc2)cc(C2CC2)nc1N | inconclusive: 31.6 µM [activator, single point] | 
CCCOc1ccccc1NC(=O)c1c(-c2ccccc2)noc1C | inconclusive: 31.6 µM [activator, single point] | 
COc1cccc(Cn2c(N)c(C#N)c3nc4ccccc4nc32)c1OC |  | inactive: -11.8%
Clc1ccc(Cc2nn3c(-c4ccncc4)nnc3s2)cc1 | inconclusive: 3.98 µM [activator, single point] | 
O=C(c1ccc(COc2ccccc2Br)o1)N1CCCCCC1 | inconclusive: 31.6 µM [activator, single point] | 
CCn1c(SCC(=O)Nc2cccc(F)c2)nc2c(c1=O)SC(C)C2 (centres undefined) | inconclusive: 3.16 µM [activator, full curve] | 
O=C(Nc1ccccc1)c1ccc(F)c(S(=O)(=O)N2CCOCC2)c1 | inconclusive: 25.1 µM [activator, single point] | 
COCCCn1c(SCC(=O)Nc2ccc3c(c2)OCCO3)nnc1-c1ccoc1C | inconclusive: 6.31 µM [activator, single point] | 
CCOC(=O)c1ccc(NC(=O)CN2CCN(c3ccccc3)CC2)cc1 | inconclusive: 6.31 µM [activator, partial curve] | 
Cc1ccc(-c2noc(CN(C(=O)CCCN3C(=O)c4ccccc4C3=O)C(C)C)n2)cc1 | inconclusive: 25.1 µM [activator, single point] | 
N#Cc1cccc(NC(=O)N2CC[C@@]3(CCCNC3)C2)c1 |  | inactive: -6.6%
CCCC[C@@H]1C[C@H]1C(NC(=O)c1ccco1)c1ccccc1C(F)(F)F (some centres undefined) | active: 31.6 µM | 
Clc1ccc(CCNc2ncnc3nc[nH]c23)cc1 | inconclusive: 15.8 µM [activator, partial curve] | 
CCCC(=O)Nc1ccccc1N1CCN(C(=O)c2ccccc2)CC1 | active: 15.8 µM | 
Cc1ccc(Cn2nnc3c(=O)[nH]c(C4CCCN(C(=O)Nc5ccc(F)cc5)C4)nc32)cc1 (centres undefined) | inconclusive: 39.8 µM [activator, single point] | 
COc1ncc2nc(-c3cn(C)c4ccccc34)c(=O)n(-c3ccccc3)c2n1 | inconclusive: 0.0316 µM [activator, full curve, poor fit] | 
CCN(CC)c1ccc2cc(-c3nc4ccccc4n3C)c(=O)oc2c1 | inconclusive: 0.126 µM [activator, full curve, poor fit] | 
O=c1c2ccccc2nc(SCc2nnc(-c3ccccc3Br)o2)n1-c1ccccc1 | inconclusive: 31.6 µM [activator, single point] | 
Cc1ccc(-c2noc(CCC(=O)Nc3ccccc3C)n2)cc1 | inconclusive: 39.8 µM [activator, partial curve, poor fit] | 
COc1cccc(-c2cc(C(=O)N/N=C/c3ccccc3O)[nH]n2)c1 | inconclusive: 6.31 µM [activator, single point] | 
Cc1cc(C)cc(OCC(=O)Nc2ccccc2C(=O)NCc2ccco2)c1 | inconclusive: 31.6 µM [activator, single point] | 

Compound | Potency | activation
CN(Cc1ccccc1)c1oc(-c2ccco2)nc1C#N | inconclusive: 25.1 µM [activator, partial curve] | 
C=CCn1c(SCC(=O)NCCOC)nc2scc(-c3ccco3)c2c1=O |  | inactive: 26.4%
Cc1ccc(-c2nc(Nc3ccccc3)n[nH]2)cc1 |  | inactive: -35.3%
c1ccc(-c2nnc3sc(-c4csc5c4CCCC5)nn23)cc1 | active: 25.1 µM | 
COc1ccc(CCNc2nnc(Sc3nnnn3-c3ccccc3)s2)cc1OC |  | inactive: 7.4%
COc1ccc([N+](=O)[O-])c2c1CCN2C(=O)CC[C@H](N)C(=O)O |  | inactive: 4.41%
N#C/C(=C\c1ccc(O)c(O)c1)C(=O)Nc1ccccc1 | inactive | 
Cc1ccc(-n2ncc3c(=O)[nH]c(SCC(=O)N4CCCc5ccccc54)nc32)cc1 | active: 39.8 µM | 
Cc1cccc(Cc2c(C)nc3c(C(=O)NCc4ccco4)cnn3c2C)c1 | inconclusive: 31.6 µM [activator, single point] | 
CCc1nc(C)cn1S(=O)(=O)c1cc(C)c(OC)cc1C | inconclusive: 6.31 µM [activator, partial curve] | 
CCOC(=O)C1=C(N)N(c2ccccc2Oc2ccccc2)C(=O)C1 | inconclusive: 39.8 µM [activator, single point] | 
COC(=O)[C@@]1(Cc2ccc(F)cc2)[C@H]2c3cc(C(=O)N(C)C)n(Cc4ccc(OC)c(OC)c4)c3C[C@H]2CN1C(=O)c1ccccc1 | active: 15.8 µM | 
CCN(CC)c1nc2ccccc2nc1C(C#N)C(=O)NCCCOC (centres undefined) |  | inactive: 6.74%
C/C(=N\NC(=O)c1ccncc1)c1ccc2ccccc2c1O |  | inactive: -10.9% [at 11.4 µM]
Cc1nc2c(C(=O)NCc3ccco3)cnn2c(C)c1Cc1ccc(F)cc1Cl | active: 25.1 µM | 
COc1cc2c(cc1OC)CN(C(=O)c1cc(S(=O)(=O)N3CCOCC3)ccc1Cl)CC2 | inconclusive: 25.1 µM [activator, partial curve] | 
COC(=O)NC(c1ccco1)[C@]1(C(C)=O)CCCC1=O (some centres undefined) |  | inactive: -1.48% [at 11.4 µM]
CCSc1nc(O)c(CC)c(=O)n1C(C)CC (centres undefined) | inconclusive: 20 µM [activator, partial curve] | 
CCc1ccc(-c2nc(CN3CCCC(C(=O)NCCc4ccc(OC)c(OC)c4)C3)c(C)o2)cc1 (centres undefined) |  | inactive: 19.8%
COc1ccccc1CNc1ncnc2ccc(-c3c(C)noc3C)cc12 | inconclusive: 31.6 µM [activator, single point] | 
CCCC[C@H]1C[C@@H]1[C@@H]1N(P(=O)(c2ccccc2)c2ccccc2)[C@](CO)(c2ccccc2)CC12CC2 | inconclusive: 39.8 µM [activator, single point] | 
CCCn1c(C)cc(C(=O)COC(=O)c2ccc(Cl)c(S(=O)(=O)N3CCCC3)c2)c1C | inconclusive: 7.94 µM [activator, partial curve] | 
COc1ccc(S(=O)(=O)Nc2cc(C(=O)NC3CCCCCC3)ccc2N2CCOCC2)cc1 | inconclusive: 25.1 µM [activator, partial curve] | 

— PubChem BioAssay AID938 (National Center for Advancing Translational Sciences (NCATS), 2007)
